Self-cleavage data for 56 variants are collected here from the RNAGym collection of RNA variant scans (doi:10.7554/elife.90254).

B1: LINE1-mini (parent)
chain: GGCAGAGCUCAACACAGCGUGGCAAAGUGGCUGUGGCUAGACUGCC

Read counts are not given, so values of variants with three or more changes are uncertain.

The variants in the data set derive from B1. The experiment in a line: self-cleavage, relative activity (ratio to wild type); higher = more cleavage; in vitro, sequencing; the parent is a self-cleaving ribozyme.
As for GGCCGAGCUCAACACAGCAUGGCAAAGGGGCUGUGGCUAGACUGCC, the self-cleavage turned out to be 0.03.
Take GGCCCAGCUCAUCACAGCGUGGCAAAGUGGUUGUGGCUACACUGCC: the self-cleavage stood at 0.05.
Next, GGCCUAGCUCAACACAGCGUGGCAAACUGGCUGUGGCUAGACUGCC: 0.07; GGCCAAGCUCAAAACAGCAUGGCAAAGUCGCUGUGGCUAGACUGCC: 0.1; GGCCGAGCUCAACACAGCAUGGCAAAGUGGAUGUGCCUAGACAACU: 0.02.
In the case of GGCCGAGCUCAACACAGCAUGGCAAAGUGGCUGUGGCUAGACUGCU, the self-cleavage worked out at 0.37.
Next, GGCCGAGCUCAACACAGCGUGGCAAAGUGGCUGUGGAUAGAGUGCC: 0.
As for GGCCUAGCUCAACACAGCGUGGCUAAGUGGCUGUGGCUAGACUGGC, the self-cleavage was determined as 0.14.
In the case of GGCCGAGCUCAACACAGCCUGGCAAAGUGGCUGUGGCUAUACUGCC it was 0.04; in that of GGCCGAGCUCAACACAGCGUUGCAAAGUGGCUGUGGCUAUACUGCC, 0.12.
As to GGCCAAGCUCAGCGCAGCGUGGCAAAGUGUCUGUGGCUAGACUGCA, the self-cleavage is 0.08.
Next, GGCCGAGCUCAACACAACGUGUCAAAGUAGCUGUGGCUAGACUGCC: 0.17; GGCCGAGCUCAACACAGCGUUGCAAUGUGGCUGUGGCUAGACUUCC: 0.16; GGCCGAGCUCAACACAGCCUGGCAAAGUGGCUGUGGCGAGACCGCC: 0.
For the variant GGCCGACGUCAACACACCGUGGCAAAGUAGCUGUGGCUAGACUGCC, the self-cleavage came to 0.44.
Next, GGCCGAGCUCAACACAGCGUGAUAAAGUGUCUCUGGCUAGACUGCC: 0.11; GGCCAAACUCAACGCAGCGUGGUAAAUUGGCUGUGGCUAGACUGAC: 0.73; GGCCGAGCUCAACACACCGUUGAAAAGUGGCUGUUGCUAGACUGCC: 0.11.
In the case of GGCCGAGCUCAACACAGCCGGGCAAAGUGGCUGUGGCUAGACUGCC it was 0.05.
Regarding GGCCGAUCUCAACACAGCGAGGCAAAGUGGCUGUGGCUAGACUGCC, the self-cleavage amounted to 1.04.
For GGCCGAACUAAACACAGCGUGGCAAAGUGGCUGUGGCUAGACUGCC, the self-cleavage stood at 0.04.
Next, GGCCGAUAUCAACAGAGGGUGGCAAAGUGGCUGUGGCUAGACUGCG: 0.03; GGCCGAACUCAACACAGCGUGGCAAAGUGGCUGCGGGUUGACUGCC: 0.53.
In the case of GGCCGAGCUCAACACAGCGUAGCAAAGUGGCUGUUGCUAGAAUCCC it was 0.04; in that of GGCCGAGCUCAACACAGCUUCGCAAAGUGGCUGUGGCUAGACUGCA, 0.08.
In the case of GGCCGAGCUCAACACAGCUUGGCCAAGUGGCUCUGGCUAGACUGCC it was 0.03.
For GGCCGAGCUCAACACAGCGUGGCAAAGUGGCUGUGGAUAGACGUCC, the self-cleavage was found to be 0.24.
For the variant GGCCCAGGUCAACAGCGCGUGGCAAAGUAGCUGUGGCUAGACUGCC, the self-cleavage came to 0.04.
In the case of GGCCGAGCUCAACACAACGGGGCAAAGUGCCUGUGGCUAGACUGCC it was 0.02; in that of GGCCGAGCUCAACACAGCCUGGCAAAGUGGCUGUGGUUAGACUGCC, 0.02; in that of GGCCGAACUCAACACAGCGUGGCAAACUGGCUGUGGCUAGACUGCC, 1.01.
As to GGCCUAGCUCAACACGGCGUGGCAAAGUGGCUGAGGCUAUCCUGCC, the self-cleavage was determined as 0.03.
In the case of GGCCGACCUCAACACAGCGUGGCAAGGUGGCUGUGGCUAGACUGCC it was 0.19; in that of GGCCGAUCUCAACACAGCGCGGCAAAGUGGCUGUGGCUAGACUUCC, 0.08; in that of GGCCGAGCUCAACACAGCAUGGCAUAGUGGCUGUGGCUAGACUGCC, 0.03.
As to GGCCCAGCUCAACACUGCGUGGCAAACUGGCUGUGGCUAGACUGAC, the self-cleavage was determined as 0.08.
Next, GGCCCAGCACAACACAGCGUGGCAACGUGGCUGUGGCUAGACUGCC: 0.09; GGCCUAGCUCAUCACGGCGUGGCAAAGUGGCUGUGGCUAGACUGCC: 0.1.
On to GGCCGAGCUCAACACAUCGUGUCAAUGUGGCUGUGGCCAUACAGCC, for which the self-cleavage is 0.09.
Next, GGCCUAGCUCAACACAGGGUAGCAAAGUGACUGUGGCUAGAUUGCC: 0.21; GGCCCAGCUCAACACAGCGUUGCAAAGUGACUUUGGCCAGACUGCC: 0.38; GGCCCAGCUCAACACAGCGUGGCAAAGUGUCUGUGGCUAGACUGCC: 0.03.
As to GGCCGAGCUCAACACAGCGUGGCAAAGUGGCUGUGGACAGACUACC, the self-cleavage worked out at 0.23.
Next, GGCCAAGUUCAACACAGCGUGGCAAAGUGGCUGUGGCUAGACUGCC: 0.26; GGCCGAGCUCAACACAGCUUGGCAAAGAGGCUGUGGAUAGACUGCC: 0.06.
In the case of GGCCGAGCUCAACACACCGUGGCAUAGUGGCUGUGGCUAGACUACC it was 0.07.
In the case of GGCCAAGCUCAACACAGCGUGGCGAAGUGGAUGUGGCUAGACUGCC, the self-cleavage worked out at 0.03.
Next, GGCCCAGCUCAACACAGGGUGGUAAAGUGGCUGUGGCUAGACUGCC: 0.01; GGCCGAGCUCAACACAGCGUAGCAAAGUGGCUGUGGUUAGACUGCC: 0.2; GGCCUAGCUCAACACAGCGUGGCAAAGUGGCUGUGGCUAAACUGCC: 0.1.
Take GGCCGAGCUCAACACAGCGUGGCAAAGUGGCUGUGGGUAGACUACC: the self-cleavage was determined as 0.06.
On to GGCCGAGCUCAACACAUCGUGGCAAAGUGGCUGUGGUUAGACUGCC, for which the self-cleavage was 0.05.
Next, GGCCGAGCUCAACACAGCGUCGCUAAGUGGCUGUGGCUAGACUGCU: 0.06; GGCCAAGCUCAACAAAGCGUGGCAAAGUGGCUGUGGCUAGACUGCC: 0.05.
Next, GGCCGAACUCAACACAGCGUGGCAAAGUGGCUGUGCCUAGACUGCC: 0.35; GGCCGAACUCAACACAGGGUGGCAAAGUGGCUGUGGCUAGACUGCC: 0.2.
